The text below walks through data of the supplement of paper PMC11369174, “Proteome-scale characterisation of motif-based interactome rewiring by disease mutations” (Molecular Systems Biology, 2024).

The other results are listed elsewhere or left out. This is a noisy data set.

Experiment in all cases: mutation enrichment score (mutant vs wild-type peptide binding to bait); baits are purified protein domains named by gene / domain / UniProt id / residues; peptides come from disordered regions of human proteins; higher = mutation enhances binding relative to wild type
One assay concerns the target T1, AP2_Mu__Q96CW1_160_435.
T1 chain: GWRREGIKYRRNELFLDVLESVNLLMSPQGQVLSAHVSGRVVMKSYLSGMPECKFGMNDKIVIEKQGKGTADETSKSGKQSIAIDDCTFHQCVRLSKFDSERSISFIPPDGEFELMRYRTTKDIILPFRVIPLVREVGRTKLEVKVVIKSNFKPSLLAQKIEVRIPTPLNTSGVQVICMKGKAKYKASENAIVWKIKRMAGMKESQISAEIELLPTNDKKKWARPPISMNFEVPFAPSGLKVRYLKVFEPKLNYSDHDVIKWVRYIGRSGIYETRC
Conditions: wild-type window: ….

Assay [1] concerns the target CBX3_CHROMO-Shadow__Q13185_109_173. To be noted: number of wild-type / mutant comparisons summed (bounds the score): 6; paper call: no_effect; wild-type window: ….
Assay [2] has as its target T2, CSK21_Pkinase__P68400_1_335.
T2 chain: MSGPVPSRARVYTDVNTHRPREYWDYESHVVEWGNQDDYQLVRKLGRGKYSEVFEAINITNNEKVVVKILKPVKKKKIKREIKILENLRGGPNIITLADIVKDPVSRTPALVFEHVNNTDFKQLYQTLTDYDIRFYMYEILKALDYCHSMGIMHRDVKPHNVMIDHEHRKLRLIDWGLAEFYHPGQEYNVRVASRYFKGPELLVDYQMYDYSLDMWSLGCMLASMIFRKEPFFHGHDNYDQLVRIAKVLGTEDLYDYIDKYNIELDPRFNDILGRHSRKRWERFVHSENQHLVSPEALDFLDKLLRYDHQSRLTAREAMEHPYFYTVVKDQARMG
To be noted: number of wild-type / mutant comparisons summed (bounds the score): 6; paper call: no_effect; wild-type window: ….

The target of a further assay is T3, Bub1_TPR__O43683_1_150.
T3 chain: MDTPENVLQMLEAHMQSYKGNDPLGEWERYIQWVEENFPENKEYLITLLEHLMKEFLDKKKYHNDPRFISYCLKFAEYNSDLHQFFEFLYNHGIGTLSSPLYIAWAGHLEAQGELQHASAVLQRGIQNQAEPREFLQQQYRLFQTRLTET
To be noted: number of wild-type / mutant comparisons summed (bounds the score): 6; paper call: no_effect; wild-type window: ….

Another assay addresses T4, EPS15_EH__P42566_121_215.
T4 chain: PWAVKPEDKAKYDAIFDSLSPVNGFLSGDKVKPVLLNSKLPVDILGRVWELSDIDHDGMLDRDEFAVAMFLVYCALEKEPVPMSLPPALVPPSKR
Conditions: paper call: no_effect, wild-type window: ….

In assay [3] the target is T5, AURKA_Pkinase-merged__O14965_125_391.
T5 chain: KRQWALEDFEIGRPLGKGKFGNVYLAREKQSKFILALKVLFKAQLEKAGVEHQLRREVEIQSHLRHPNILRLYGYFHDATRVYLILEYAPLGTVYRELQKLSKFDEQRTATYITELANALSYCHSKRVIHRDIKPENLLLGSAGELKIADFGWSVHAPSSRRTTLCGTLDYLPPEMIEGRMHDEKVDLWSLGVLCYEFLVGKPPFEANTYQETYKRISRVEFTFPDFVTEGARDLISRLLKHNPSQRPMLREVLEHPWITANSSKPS
To be noted: number of wild-type / mutant comparisons summed (bounds the score): 6; paper call: no_effect; wild-type window: ….

Assay [4] has as its target T6, CLTC_Clathrin-propeller__Q00610_1_364.
T6 chain: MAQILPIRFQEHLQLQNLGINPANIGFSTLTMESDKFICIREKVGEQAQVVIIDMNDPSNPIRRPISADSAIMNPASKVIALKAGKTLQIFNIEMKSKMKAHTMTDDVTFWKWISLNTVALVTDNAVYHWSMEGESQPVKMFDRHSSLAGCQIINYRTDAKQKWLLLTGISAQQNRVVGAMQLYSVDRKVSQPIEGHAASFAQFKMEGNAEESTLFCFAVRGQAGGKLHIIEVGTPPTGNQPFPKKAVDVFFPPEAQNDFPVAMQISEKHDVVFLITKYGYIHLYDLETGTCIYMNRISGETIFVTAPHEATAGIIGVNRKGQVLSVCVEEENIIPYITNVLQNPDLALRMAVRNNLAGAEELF
To be noted: paper call: enhanced, wild-type window: ….

Assay [5] concerns the target USP7_MATH-TRAF__Q93009_53_206. To be noted: number of wild-type / mutant comparisons summed (bounds the score): 5; paper call: no_effect; wild-type window: ….
The target of assay [6] is T7, CHD1_tandem-chromo__O14646_268_443.
T7 chain: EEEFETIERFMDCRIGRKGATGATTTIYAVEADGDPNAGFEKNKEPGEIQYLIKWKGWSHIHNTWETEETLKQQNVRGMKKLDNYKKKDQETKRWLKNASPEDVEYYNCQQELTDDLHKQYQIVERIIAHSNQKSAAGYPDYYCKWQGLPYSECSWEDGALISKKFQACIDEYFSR
Conditions: number of wild-type / mutant comparisons summed (bounds the score): 5; paper call: no_effect; wild-type window: ….

The mark [7] stands for this setting: number of wild-type / mutant comparisons summed (bounds the score): 6, paper call: no_effect.
Setting [8] is: number of wild-type / mutant comparisons summed (bounds the score): 12, paper call: no_effect.
[9] abbreviates: number of wild-type / mutant comparisons summed (bounds the score): 12.
Setting [10] is: number of wild-type / mutant comparisons summed (bounds the score): 6.

Sequence of USP7_MATH-TRAF__Q93009_53_206 (chain, as listed by the source): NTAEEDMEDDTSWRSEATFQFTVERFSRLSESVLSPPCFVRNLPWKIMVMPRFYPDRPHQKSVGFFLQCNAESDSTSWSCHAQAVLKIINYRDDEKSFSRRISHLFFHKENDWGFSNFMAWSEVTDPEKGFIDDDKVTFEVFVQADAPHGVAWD

LQEKDIQMWKVSLQKEQARYSQLQEQRDTMVTKLHSQIRQL [N762S N762S]: the mutation enrichment score in the assay with AP2_Mu__Q96CW1_160_435 (setting [7]) is 2.

As for TDRIISQCGRLIAGGSLSSTHMSTPCSSVPPSPSFSAPSPG [P59H P59H], the mutation enrichment score in [1] is -2.

As for TDRIISQCGRLIAGGSLSSTLMSTPCSSVPPSPSFSAPSPG [P59L P59L], the mutation enrichment score in [1] was -2.

Take WSFLFSLILIVIMFLWRPSADNQRYAFMPLIDDSDDEIEEF [N456D N456D]: the mutation enrichment score in the assay with AP2_Mu__Q96CW1_160_435 (setting [7]) is -1.3.

With AVSSIQKAKGYQLLEEEKIVFHYFPLTEVGMVETSPLPAKP [S276F S276F], the results for the mutation enrichment score (with AP2_Mu__Q96CW1_160_435 (setting [8]); in [2]) were -0.17 and 2, respectively.

As for ASNLLALSVLAGARQGGSHTLSSFLTFLCGLVLTDFLGLLV [R60L R60L], the mutation enrichment score with Bub1_TPR__O43683_1_150 amounted to 3.

HFCLGRGLIDLALSQAVTDVNARFGEEHSANPFHWDLIGKN [Y1858N Y1858N]: the mutation enrichment score was -5 with AP2_Mu__Q96CW1_160_435 (setting [7]) and 0.2 with EPS15_EH__P42566_121_215 (setting [9]).

Consider ETDRIISQCGRLIAGGSLSSAPMSTPCSSVPPSPSFSAPSP [T58A T58A], for which, in [1], the mutation enrichment score was -2.

ETDRIISQCGRLIAGGSLSSIPMSTPCSSVPPSPSFSAPSP [T58I T58I]: the mutation enrichment score in [1] is -2.

Consider VWASLRSSTRLISSPTSFIDAGARLAGKDHSASFSNSSYLQ [V1286A V1286A], for which the mutation enrichment score in assay [1] was -4.

With GRARWGLAYTLLHNPTLQVFLKTALLGANGAQP [R655L R655L], the mutation enrichment score with AP2_Mu__Q96CW1_160_435 (setting [7]) was 0.

For the molecule AIPERRMKVQNLLPDHEYQFCVKAENEIGIGEPSLPSRPVV [R19396C R19396C], in assay [1], the mutation enrichment score was determined as 2.

In the case of VLSSELPEDDRELFEDLLRQVSDLRLQANWNRAEEENEFQI [M330V M330V], the mutation enrichment score in the assay with Bub1_TPR__O43683_1_150 is -5.

Regarding FGLPRLPEEWSQWLGGSSWPDYVRPLPPAAIESPAVAAPAY [G53D G53D], the results for the mutation enrichment score (in the assay with AP2_Mu__Q96CW1_160_435 (setting [7]); in assay [3]; in [2]) were 1.4, 5.5 and 2, respectively.

For SASVAPRTAAEPRSPGPVPHLAQSKATEAGGGNPSGIYSAI [P26L P26L], in [1], the mutation enrichment score was 2.

On to ISQCGRLIAGGSLSSTPMSTRCSSVPPSPSFSAPSPGSGSE [P63R P63R], for which the mutation enrichment score in assay [1] is -2.

In the case of QSLTMTAEQKESELIELRETTEMLKAQNSAAQAAIQGALNG [I1634T I1634T], the mutation enrichment score in [4] (setting [10]) is 6; in [5] it was -2.

For the molecule IISQCGRLIAGGSLSSTPMSRPCSSVPPSPSFSAPSPGSGS [T62R T62R], in [1], the mutation enrichment score was -2.

Consider KILLDVKTRLEQEIATYRRLPEGEDAHLTQYKKEPVTTRQV [L388P L388P], for which, in the assay with AP2_Mu__Q96CW1_160_435 (setting [7]), the mutation enrichment score is 1.

PEHFPFPAPANAPLQRIRSTATPNVHMVSTTAPMDSNLIQL [S214A S214A]: in assay [6], the mutation enrichment score is -1.4.

For PEHFPFPAPANAPLQRIRSTFTPNVHMVSTTAPMDSNLIQL [S214F S214F], in assay [6], the mutation enrichment score was -4.

Regarding AGPGDGRPNLRMKFQGAFRKWVPNPIDLLESTLYESSVVPG [G78W G78W], the mutation enrichment score in [1] turned out to be 2.

For LALSQAVTDVYARFGEEHSAIPFHWDLIGKNLFAMVVEGVV [N1868I N1868I], the mutation enrichment score was 9 with AP2_Mu__Q96CW1_160_435 (number of wild-type / mutant comparisons summed (bounds the score): 12, paper call: enhanced) and -4 with EPS15_EH__P42566_121_215 (setting [10]).

For IQFSVPAPPSQLDPRQVEMILRRRPTPAMLFRLSEHSSPEE [R29L R29L], the mutation enrichment score with AP2_Mu__Q96CW1_160_435 (setting [8]) is -2.

Turning to LEGDNMETPVTLINFWPVDSVPASSPQLSHDDTHSRIEHYA [A3421V A3421V], the mutation enrichment score in [4] (setting [9]) came to 12.
